# Earlier results, collected in article PMC11006913.
# The other results are listed elsewhere or left out.
# Molecular target: HOXD13 Q325K (Homo sapiens) (UniProt P35453)
# Conditions: PBM; conditions not shown; double strand, one strand shown; scale: upbm affinity estimate (log intensity, higher = more binding, comparable within an allelic series)
# UniProt P35453, sequence (P35453 263-343 Q325K): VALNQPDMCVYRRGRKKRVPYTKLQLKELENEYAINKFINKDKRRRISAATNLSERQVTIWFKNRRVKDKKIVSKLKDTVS
row,Sequence,binding signal
1,GAATAAAC [8-mer GAATAAAC],12.2
2,GCATAAAC [8-mer GCATAAAC],12.6
3,GATAAAAA [8-mer GATAAAAA],12.4
4,CCGGATAA [8-mer CCGGATAA],12.2
5,GGATATAA [8-mer GGATATAA],12.3
6,GAATAAAA [8-mer GAATAAAA],12.3
7,ATTATCCG [8-mer ATTATCCG],12.1
8,GGCATTAA [8-mer GGCATTAA],12.4
9,CAGATAAA [8-mer CAGATAAA],12.5
10,TAGATAAA [8-mer TAGATAAA],12.2
11,GATAAATC [8-mer GATAAATC],12.2
12,AGGGATAA [8-mer AGGGATAA],12.2
13,GGATGAAA [8-mer GGATGAAA],11.5
14,GGTTTAAA [8-mer GGTTTAAA],12.6
15,CGGATAAC [8-mer CGGATAAC],12
16,TGGCATAA [8-mer TGGCATAA],12.2
17,AGAATAAA [8-mer AGAATAAA],12.2
18,GCATTAAA [8-mer GCATTAAA],12.4
19,ATTATACC [8-mer ATTATACC],12.2
20,GGAATAAA [8-mer GGAATAAA],12.7

row,Sequence,binding signal
1,ATTAATGC [8-mer ATTAATGC],12.3
2,TGGATAAA [8-mer TGGATAAA],12.6
3,GGGGATAA [8-mer GGGGATAA],12.3
4,GGTATAAC [8-mer GGTATAAC],12.2
5,CGGATAAA [8-mer CGGATAAA],13.4
6,GGCATAAC [8-mer GGCATAAC],12
7,AGCATAAA [8-mer AGCATAAA],12.6
8,GTTTATAA [8-mer GTTTATAA],12.3
9,CGTTTATC [8-mer CGTTTATC],12.2
10,AAGATAAA [8-mer AAGATAAA],12.2
11,GTTTAAAC [8-mer GTTTAAAC],12.4
12,GGGATAAA [8-mer GGGATAAA],13.2
13,AGATAAAC [8-mer AGATAAAC],12.2
14,AGGATAAA [8-mer AGGATAAA],12.6
15,GGTGTAAA [8-mer GGTGTAAA],12.9
16,GGGAATAA [8-mer GGGAATAA],12.2
17,GGCATAAA [8-mer GGCATAAA],13.1
18,GGGCATAA [8-mer GGGCATAA],12.3
19,GATTATCC [8-mer GATTATCC],11.8
20,ATTTTATC [8-mer ATTTTATC],12.5
